From PubChem BioAssay AID1645887 (National Center for Advancing Translational Sciences (NCATS), 2021)
“And” between values parts separate entries of the source, which are not always exact repeats. Equal values may be shown once. Screen size: about 16,000 compounds; about 40 (0.2%) were called active. About 1% were inconclusive and are not listed. The call rests on the fitted dose curve; in most records, active means well fitted activation curve with a large enough effect; inconclusive means small, poorly fitted or top-dose-only effect, or another doubt; inactive means no such curve, though single readings can be large or run the other way. The list shows a part of the results.

These molecules were tested against Rap guanine nucleotide exchange factor 4 (Homo sapiens) (UniProt Q8WZA2) (assay: Validation qHTS for agonist of cAMP-regulated guanine nucleotide exchange factor 4 (EPAC2)). Conditions: EPAC2 Rap1B BODIPY-GDP exchange, fluorescence; activation: stronger effect = higher value.
UniProt Q8WZA2, sequence (Q8WZA2 whole entry, looked up): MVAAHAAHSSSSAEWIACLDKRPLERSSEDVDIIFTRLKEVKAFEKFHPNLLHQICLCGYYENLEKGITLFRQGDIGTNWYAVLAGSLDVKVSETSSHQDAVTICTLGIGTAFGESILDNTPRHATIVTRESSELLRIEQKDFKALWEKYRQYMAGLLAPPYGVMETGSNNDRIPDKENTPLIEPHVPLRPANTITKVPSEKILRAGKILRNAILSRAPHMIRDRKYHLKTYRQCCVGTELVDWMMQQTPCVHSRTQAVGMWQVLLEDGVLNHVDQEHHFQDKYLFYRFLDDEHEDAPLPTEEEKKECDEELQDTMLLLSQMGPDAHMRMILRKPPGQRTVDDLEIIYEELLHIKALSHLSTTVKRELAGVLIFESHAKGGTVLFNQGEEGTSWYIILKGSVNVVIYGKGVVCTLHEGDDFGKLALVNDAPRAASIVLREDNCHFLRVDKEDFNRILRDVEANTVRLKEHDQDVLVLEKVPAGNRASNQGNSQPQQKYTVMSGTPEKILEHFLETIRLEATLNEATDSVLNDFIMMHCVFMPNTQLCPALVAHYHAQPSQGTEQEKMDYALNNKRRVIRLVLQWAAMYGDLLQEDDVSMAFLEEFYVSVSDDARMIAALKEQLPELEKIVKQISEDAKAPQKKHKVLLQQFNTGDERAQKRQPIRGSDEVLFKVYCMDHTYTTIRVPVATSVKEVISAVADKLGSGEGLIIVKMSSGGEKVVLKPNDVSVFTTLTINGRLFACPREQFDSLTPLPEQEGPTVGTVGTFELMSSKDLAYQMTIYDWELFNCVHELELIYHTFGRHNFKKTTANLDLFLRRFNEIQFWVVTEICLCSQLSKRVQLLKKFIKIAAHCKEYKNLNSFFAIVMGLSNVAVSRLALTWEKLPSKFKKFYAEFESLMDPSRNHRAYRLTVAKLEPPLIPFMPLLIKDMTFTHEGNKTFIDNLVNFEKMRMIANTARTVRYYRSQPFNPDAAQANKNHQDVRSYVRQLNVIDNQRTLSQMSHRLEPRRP
Method in brief: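 Fluorescent exchange assay: 100 nM EPAC2 with 250 nM RAP1B-BODIPY-GDP and 50 uM GDP; compound added, 5 min at room temperature, then read (ex 480/em 540 nm) every 5 min for 30 min. Normalized to 6.5 mM cAMP agonist control.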
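Further: exchange makes BODIPY-GDP fluorescence drop when released from Rap1B; series mostly up to about 150 µM.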
On the % scale 0 is the no-effect control and ±100 the full control effect.

activation, inactive:
CC1(C)C(=O)C=C[C@@]2(C)C1C=C[C@@]1(C)C2CC[C@@]2(C)C(c3ccoc3)OC(=O)C3OC312 (stereo not given in full) -9.61%
COC(=O)[C@@H]1CCCN1C(=O)c1cc(NC(=O)C2CCC2)c2c(c1)nc(-c1ccncc1)n2C -5.92%
COCCn1c(=O)c(-c2cccs2)nc2cnc(N(C)C)nc21 27.3%
CC12C(=O)OC(=O)C1(C)C1CCC2O1 (stereo not given) 1.27% and -5.98% and 7.78%
CC(C)c1cccc(O)c(=O)c1 -1.79% and -12.9%
Nc1nc2c(ncn2COC(CO)CO)c(=O)[nH]1 -25.7% and -11.1%
COCCn1c(=O)cnc2cnc(Nc3cccc(OC)c3)nc21 -13.4%
COc1ccc(-c2cnc(-c3cccnc3)o2)cc1 -23%
CC1(C)Oc2ccc3ccc(=O)oc3c2CC1=O -25.4%
CCNc1ncc2nc(-c3ccc(F)cc3)c(=O)n(-c3ccccc3)c2n1 -1.12%
O=C(O)CCCCCCCCc1cn(Cc2ccc(C(=O)c3ccccc3)cc2)nn1 -9.58%
CO[C@H]1C=CO[C@@]2(C)Oc3c(C)c(O)c4c(O)c(c(/C=N/N5CCN(C)CC5)c(O)c4c3C2=O)NC(=O)/C(C)=C\C=C[C@H](C)[C@H](O)[C@@H](C)[C@@H](O)[C@@H](C)[C@H](OC(C)=O)[C@@H]1C -42.4%
CSc1nnc(CNS(=O)(=O)c2ccc(F)cc2F)n1-c1ccccc1C -2.89%
C[C@H](C(=O)O)c1cccc(C(=O)c2ccccc2)c1 4.65%
CS(=O)(=O)Nc1c(O)ccc2c1CCC[C@H]2C1=NCCN1 -8.26%
COC(=O)N1CCC2(CC1)CN(c1ccccn1)C2 -16.5%
NC1(C(=O)O)CC1 -23.4% and -13.6%
COc1ccc(-c2cc(=O)c3c(O)c(OC)c(OC)c(OC)c3o2)cc1 -11.7%
Fc1ccc(Nc2ccnc(-c3ccc4c(c3)OCO4)n2)cc1 -18.9%
O=C1CCN(CCc2ccccc2)CCN1[C@H](COc1ccccc1)Cc1ccccc1 -19.6%
Oc1cc2c(cc1O)C1c3ccc(O)c(O)c3OCC1(O)C2 (stereo not given) -18.1%
O=C(C[n+]1ccncc1)c1ccc(Br)cc1 -19.2%
Cc1noc(NS(=O)(=O)c2cccc3c(N(C)C)cccc23)c1C -7.5%
Cc1c(C(=O)NCc2nccs2)cnn1-c1ncc2c(n1)-c1ccccc1CC2 3.06%
CCN(CC)c1ccc(/C=C/c2ccccn2)cc1 6.18%
COC(=O)N1CCC2(CCN(Cc3nccs3)CC2)CC1 -22.7%
Cc1ccccc1-c1ccc2ncnc(N(C)C)c2c1 -14%
COC(=O)N1CCC2(CCN(C(=O)NC(C)C)CC2)CC1 5.87%
CCCCC(C)(O)C/C=C/[C@H]1[C@H](O)CC(=O)[C@@H]1CCCCCCC(=O)O (stereo not given in full) 10.1%
CCN(CC)C(=O)c1ccc(O)c(OC)c1 3.98% and -4.84% and -28.6%
COc1cccc(Nc2ncc3ncc(=O)n(CCC#N)c3n2)c1 -0.378%
CNc1nc(-c2ccc(C(=O)N(C)C)cc2)nc2ccccc12 -6.78%
CC(=O)[C@@]1(O)CC[C@H]2[C@@H]3CCC4=CC(=O)CC[C@]4(C)[C@H]3CC[C@@]21C -5.73% and -12.3%
COc1cccc(-c2ccnc(-n3ncc(C(=O)NCc4cccnc4)c3C3CC3)n2)c1 -8.44%
CC(NC(=O)c1cc(F)ccc1F)c1nnc2n1CCN(Cc1ccccc1O)CC2 (stereo not given) 0.318%
COCc1c(C(=O)NC2CCCCC2)cnn1-c1nccc(-c2ccccc2OC)n1 -11.4%
N#Cc1cccc(NC(=O)N2CCCC3(CCN(S(=O)(=O)c4ccccc4)CC3)C2)c1 1.25%
Cc1noc(C)c1-c1ccc2ncnc(NCc3cccs3)c2c1 -22.2%
CC(C)CC(N)C(=O)NC(C)C(=O)O (stereo not given) -9.34%
COC(=O)N1CCC2(CC1)CN(C(=O)Nc1cccc(F)c1)C2 5.39%
COc1cc([C@@H]2c3cc4c(cc3C(OC3OC5COC(C)OC5C(O)C3O)C3COC(=O)[C@@H]32)OCO4)cc(OC)c1O (stereo not given in full) 4%
CCN(CC)CCOC[C@H]1O[C@@H](O)[C@H](OCCN(CC)CC)[C@@H](O)[C@@H]1O -1.9%
NCC1O[C@@H](OC2C(N)C[C@H](N)[C@@H](O[C@H]3OC(CO)C(O)C(N)C3O)C2O)C(O)C(O)C1O (stereo not given in full) -5.12%
COc1ccc(-c2nc3cc(F)ccc3cc2CN(C(=O)c2ccc3c(c2)OCO3)C2CC2)cc1 -21.5%
COc1ccc(NC(=O)N2CC3(CCN(C(C)=O)CC3)C2)cc1 -5.2%
CCCCCCCCCCOc1cc2c(=O)c(C(=O)OCC)c[nH]c2cc1OCC 11.6%
CN(C)CC(C)(O)c1ccc2c(c1)CN(Cc1cccn1-c1cccnc1)CCO2 (stereo not given) -4.09%
COc1ccc(CN2CCOc3ccc(CN4CCC(Oc5cccnc5)CC4)cc3C2)cc1C -9.72%
CCN(CC)C(=S)S 9.79%
Cn1cc(CN2CCC(C3(c4ccccn4)NC(=O)N(CC4CCCO4)C3=O)CC2)c2ccccc21 (stereo not given) 4.94%
CCOC(=O)C[C@H]1c2cc(F)ccc2S(=O)(=O)N1Cc1ccc(OC)cc1 -26.4%
COc1ccccc1CNc1ncnc2sc(C(=O)N3CCN(C)CC3)c(C)c12 -5.84%
COCCNc1nc(-c2cccc(NS(C)(=O)=O)c2)nc2ccccc12 -4.99%
COc1ccc2cnoc(=O)c2c1OC -6.06%
O=C1CC[C@H](O)CCN1[C@H](CSc1ccc(Br)cc1)Cc1ccccc1 -22.1%
